Data taken from PubChem BioAssay AID652106 (National Center for Advancing Translational Sciences (NCATS), 2013).
Hit rate of the full screen: of about 370,000 compounds, about 500 (0.14%) were called active. The shares of active, inactive and inconclusive entries below differ from those in the screen. The call rests on the fitted dose curve; in most records, active means well fitted activation curve with a large enough effect; inconclusive means small, poorly fitted or top-dose-only effect; inactive means no such curve, though single readings can be large or run the other way. No potency is given beside an inconclusive call; the fits are too rough.

test: qHTS of alpha-syn Inhibitors; settings: Yeast expressing alpha-synuclein, BacTiter-Glo, 24 h; Potency: growth rescue unless noted; series mostly up to 46.1 µM; further: nearly all actives have a fitted effect of over 65% in size
Procedure, shortened: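 Rescue of yeast growth: cells expressing toxic alpha-synuclein, induced in galactose at OD600 0.02, incubated with compound 24 h at 30 C. ATP luminescence quantified growth; inhibitors of toxicity appear as activators.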
Potency means the concentration at half of the fitted maximal effect; tags describe the fitted curve by direction and shape.

Compound	Potency
COc1ccccc1CNS(=O)(=O)c1ccc(-c2cnc(C3CC3)o2)cc1	inactive
COc1ccccc1NC(=O)CC(c1cc(OC)c(OC)c(OC)c1)N1Cc2ccccc2C1=O (stereo not given)	inconclusive [activator, single point]
O=C(COC(=O)c1nc(Cl)ccc1Cl)NC(=O)c1ccccc1	inactive
COc1ccc(NC(=O)c2nc(C)c(C3(C)CC(c4cccnc4)=NO3)s2)cc1 (stereo not given)	inactive
CCOC(=O)[C@]12CCC=C1N(Cc1ccccc1)C(=O)[C@H](CC(=O)NCCCCc1ccccc1)C2	inconclusive [activator, single point]
Cc1ccc(-c2nn3c(C)nnc3s2)cc1NC(=O)c1ccc(-c2cccc(Cl)c2)o1	inconclusive [activator, single point]
S=c1ncc2n[nH]nc2[nH]1	inactive
CCOc1ccc(N2CC(C(=O)NC3=NCCS3)CC2=O)cc1 (stereo not given)	inactive
Cc1onc(-c2ccccc2)c1C(=O)NC(=S)NNC(=O)c1ccco1	inconclusive [activator, single point]
Cc1ccc(CNc2nc3cc(-c4ccccc4C)sc3c(=O)n2C)c(C)c1	inconclusive [activator, partial curve, poor fit]
CN1CCc2cc3c(c4c2[C@H]1[C@H](O)c1ccccc1-4)OCO3	inconclusive [activator, single point]
Cn1ncc2c(Nc3ccc4ccccc4c3)ncnc21	inactive
COc1ccc(/C=N/NC(=O)c2nn(-c3ccccc3)c(=O)c3c(N)scc23)cc1	inconclusive [activator, single point]
CC(=O)c1ccc(NC(=S)N(Cc2ccccc2)C(C)C2CC2)cc1 (stereo not given)	inconclusive [activator, single point]
Cc1cccc(CN(Nc2ccccc2)c2ccccc2)n1	inconclusive [activator, single point]
CCOC(=O)C1(C)CCN1C(=O)c1ccc(OC)c(C(F)(F)F)c1 (stereo not given)	inconclusive [activator, single point]
Nc1ccc2c(c1)C(=O)c1cc(N)c(Cl)cc1-2	inconclusive [activator, partial curve]
COc1ccc(CN2C[C@@H](CO)O[C@@H](n3cnc4c(NC5CC5)ncnc43)C2)cc1	inconclusive [activator, single point]
CCOC(=O)C(CC)n1cnc2c(nnn2-c2ccc(F)cc2)c1=O (stereo not given)	inactive
O=C(Oc1ccc2c3c(c(=O)oc2c1)CCCC3)c1ccco1	inconclusive [activator, partial curve]
C[C@@H](NC(=O)/C(C#N)=C/c1ccc(O)c(O)c1)c1ccccc1	inconclusive [activator, single point]
Cc1ccc(C)c(NC(=O)CSc2n[nH]c(-c3ccccn3)n2)c1	inconclusive [activator, single point]

Compound	Potency
CCn1cc(C2=NCCO2)c2ccccc21	inconclusive [activator, single point]
CCCN1CNC(=S)N(c2ccccc2OC)C1	inactive
CN1C(=O)/C(=C2\SC(N3CCCCCC3)=NC2=O)c2ccccc21	inactive
CC(=O)C(Sc1ncnc2sc3c(c12)CCCC3)C(C)=O	inconclusive [activator, single point]
C=CCC[C@@H](Cc1ccc(F)cc1)C(=O)OC[C@@H]1CCCN1C(=O)[C@@H](CC=C)CC(=O)N[C@@H](CO)Cc1ccccc1	inactive
O=C(NCCN1C(=O)C2C3C=CC(C3)C2C1=O)Nc1ccccc1O (stereo not given)	inconclusive [activator, single point]
c1cc2c3c(cccc3c1)-c1cnccc1-2	inconclusive [activator, single point]
C#CCOCCOCCOCCNc1nc(N2CCN(C(=O)[C@H](CCCCN)n3cc([C@@H](N)CC(C)C)nn3)CC2)nc(N2CCN(C(=O)[C@H](Cc3ccc(O)cc3)n3cc([C@@H](N)CC(C)C)nn3)CC2)n1	inconclusive [activator, single point]
O=C(Oc1ccccc1/C=C\C(=O)c1cc2ccccc2o1)c1ccccc1	inactive
COCCNC(=O)C1(C)CCN(Cc2ccc(C(C)C)cc2)C1 (stereo not given)	inconclusive [activator, single point]
CCOC(=O)C1=CCN(S(=O)(=O)c2ccccc2[N+](=O)[O-])C1c1ccc(C)cc1 (stereo not given)	inconclusive [activator, single point]
CCOc1ccc(N2CC(C(=O)NCCc3ccc(F)cc3)CC2=O)cc1 (stereo not given)	inconclusive [activator, single point]
Cc1ccc(S(=O)(=O)N2CCN(c3nc(-c4cccs4)nc(C)c3C)CC2)cc1	inactive
CC(=O)OCC=C1CCC2C3CC(C)C4=CC(=O)CCC4(C)C3C(O)CC12C (stereo not given)	inconclusive [activator, single point]
CN1CCN(S(=O)(=O)c2ccc(N(C)Cc3cccc(F)c3)nc2)CC1	inconclusive [activator, single point]
c1ccc2sc(-c3ccncc3)nc2c1	inconclusive [activator, single point]
CN1CCC(OC(=O)COc2ccc(Br)cc2)CC1	inactive
O=C(O)c1ccc(N=C2SCC(=O)N2Cc2ccccc2)cc1	inactive
CCOC(=O)c1c(C)[nH]c(C)c1C(=O)COC(=O)c1nn(CC)c(=O)c2ccccc12	inconclusive [activator, single point]
CC(C)c1ccc(NC(=O)C2(C)Cc3c(-c4ccc(C(N)=O)cc4)ccnc3O2)cc1 (stereo not given)	inconclusive [activator, single point]
CCOc1cccc(C2C=C(c3ccc4c(c3)OCO4)NC(c3ccc(F)cc3)N2)c1O (stereo not given)	inconclusive [activator, single point]
COc1ccc(S(=O)(=O)Nc2ccc3c(c2)C(=O)N([C@H](C)CO)C[C@H](C)[C@@H](CN(C)C(=O)Nc2ccc(F)cc2)OCCCC[C@H](C)O3)cc1	inactive

Compound	Potency
COc1cc(C)c(Cl)cc1S(=O)(=O)n1cnc(C)c1	inconclusive [activator, single point]
C/C(=C\C(=S)Nc1ccccc1)Nc1ccc2ccccc2c1	inactive
Cc1cc(=O)oc2cc(OCC(=O)NCc3cccnc3)ccc12	inactive
C#CCOCCOCCOCCNc1nc(N2CCN(C(=O)[C@H](CCC(=O)O)n3cc(CN)nn3)CC2)nc(N2CCN(C(=O)[C@H](CCC(=O)O)n3cc([C@@H](N)[C@H](C)CC)nn3)CC2)n1	inconclusive [activator, single point]
COc1ccccc1NS(=O)(=O)c1ccc(NN=C2CCCC2)c([N+](=O)[O-])c1	inconclusive [activator, single point]
CCNC(=O)c1cc2c(c(-c3cccc(-c4cccc(C(=O)N(C)C)c4)c3)n1)[C@@H](CCO)N(S(=O)C(C)(C)C)C2 (stereo not given in full)	inactive
Cc1ccc(SC(C)c2nc(-c3cccnc3)no2)cc1 (stereo not given)	inconclusive [activator, single point]
N=c1c2c(-c3ccccc3)c(-c3ccccc3)n(Cc3ccco3)c2ncn1CCO	inconclusive [activator, single point]
COc1ccc(C(=O)Nc2cccc(-c3cnc4ccccc4n3)c2)cc1	inconclusive [activator, single point]
COCCNC(=S)N(CCc1c(C)[nH]c2ccc(Cl)cc12)Cc1cccs1	inconclusive [activator, single point]
Cc1cc(C)n(-c2nc(NC(C)(C)C)nc(NC(C)(C)C)n2)n1	inactive
O=C(COC(=O)C1CCN(S(=O)(=O)c2ccc(Cl)c(C(F)(F)F)c2)CC1)NCC1CCCO1 (stereo not given)	inconclusive [activator, single point]
CCN(c1ccccc1)S(=O)(=O)c1ccc(C(=O)Nc2nnc(C3CC3)o2)cc1	inconclusive [activator, single point]
CC(NC(=O)Cc1ccccc1)c1nc2ccccc2[nH]1 (stereo not given)	inconclusive [activator, single point]
CCCCNC(=O)c1nc(C2CCN(S(=O)(=O)c3ccc(F)c(F)c3)CC2)oc1-c1cccc(C(F)(F)F)c1	inconclusive [activator, single point]
COc1ccc(C(=S)N2CCOCC2)cc1OC(=O)c1ccc(C)cc1	inconclusive [activator, single point]
COc1ccccc1NS(=O)(=O)c1ccc(/C=C/C(=O)N2CCN(C(C)=O)CC2)cc1	inconclusive [activator, single point]
C=Cc1ccc(Cn2nc(-c3ccc(C)cc3)ccc2=O)cc1	inconclusive [activator, single point]
CCOC(=O)c1c(NC(=O)c2ccc(S(=O)(=O)N3CCC(C)CC3)cc2)sc2c1CCN(CC)C2	inconclusive [activator, single point]
CC(C)CCNC(=O)C1CC(c2ccccc2[N+](=O)[O-])=NO1 (stereo not given)	inconclusive [activator, single point]
Cc1cc(C)nc(NC(=NCCc2c[nH]c3ccc(Cl)cc23)NC(=O)c2ccccc2C)n1	active: 0.562 µM
